The other results are listed elsewhere or left out.

In this assay the target is T1, MBP-FoxP1dN (Mus musculus, UniProt P58462 326-579).
T1 sequence: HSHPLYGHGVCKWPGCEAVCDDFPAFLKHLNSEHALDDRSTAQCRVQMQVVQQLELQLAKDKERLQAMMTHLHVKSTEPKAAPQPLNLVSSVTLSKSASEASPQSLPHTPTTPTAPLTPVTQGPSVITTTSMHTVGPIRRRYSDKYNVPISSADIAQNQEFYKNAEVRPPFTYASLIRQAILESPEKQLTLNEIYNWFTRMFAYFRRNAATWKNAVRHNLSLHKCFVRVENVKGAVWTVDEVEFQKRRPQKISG
In words: PD-seq (MBP pull-down with sequencing); 20 mM Tris-HCl pH 7.5, 100 mM NaCl, 1.5 mM MgCl2, 0.4 uM protein, 0.1 uM dsDNA library, 30 min, room temperature, amylose pull-down; high values mean tight binding. Conditions: protein: recombinant; tags: His6-MBP; chain copies: 2; dsDNA, one strand shown. In outline: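 The N-terminus-lacking fragment of mouse FoxP3 or FoxP1 carried a His6-MBP tag and was expressed in E. coli. At 0.4 µM it was incubated with 0.1 µM Klenow-filled degenerate double-stranded DNA library for 30 min at room temperature in Tris pH 7.5 buffer with NaCl and MgCl2, and complexes were caught on amylose resin, washed three times, released with proteinase K, PCR-barcoded and Illumina-sequenced. Binding is reads-per-million enrichment of pull-down over input with replicates pooled.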
On to “GATGATTGTTCTCCCAGCTGATGAATTCCGCAAGTCGAGTAAACAAATTTTCCTAATCTTTCTGTTCAAGCGCCATCTAC”, for which the binding signal was 0.779 RPM ratio (pull-down/input). For “GATGATTGTTCTCCCAGCTGATGAATTCCGCGAATCGAGTAAACAAATTTTCCTAATCTTTCTGTTCAAGCGCCATCTAC”, the binding signal is 0.865 RPM ratio (pull-down/input). Regarding “GATGATTGTTCTCCCAGCTGATGAATTCCGCCCATCGAGTAAACAAATTTTCCTAATCTTTCTGTTCAAGCGCCATCTAC”, the binding signal was 0.788 RPM ratio (pull-down/input). Consider “GATGATTGTTCTCCCAGCTGATGAATTTGGTTTGTCGAGTAAACAAATTTTCCTAATCTTTCTGTTCAAGCGCCATCTAC”, for which the binding signal is 1.15 RPM ratio (pull-down/input). To “GATGATTGTTCTCCCAGCTGATGAATTCATCACTTCGAGTAAACAAATTTTCCTAATCTTTCTGTTCAAGCGCCATCTAC” belongs 0.937 RPM ratio (pull-down/input); to “GATGATTGTTCTCCCAGCTGATGAATTATGCGTCTCGAGTAAACAAATTTTCCTAATCTTTCTGTTCAAGCGCCATCTAC”, 1.04 RPM ratio (pull-down/input); to “GATGATTGTTCTCCCAGCTGATGAATTGACACACTCGAGTAAACAAATTTTCCTAATCTTTCTGTTCAAGCGCCATCTAC”, 1.26 RPM ratio (pull-down/input). The value for “GATGATTGTTCTCCCAGCTGATGAATTGATGACATCGAGTAAACAAATTTTCCTAATCTTTCTGTTCAAGCGCCATCTAC” was 1.34 RPM ratio (pull-down/input). To “GATGATTGTTCTCCCAGCTGATGAATTCATGCGCTCGAGTAAACAAATTTTCCTAATCTTTCTGTTCAAGCGCCATCTAC” belongs 0.945 RPM ratio (pull-down/input). Regarding “GATGATTGTTCTCCCAGCTGATGAATTACATTTGTCGAGTAAACAAATTTTCCTAATCTTTCTGTTCAAGCGCCATCTAC”, the binding signal is 1.38 RPM ratio (pull-down/input). To “GATGATTGTTCTCCCAGCTGATGAATTTTCCATCTCGAGTAAACAAATTTTCCTAATCTTTCTGTTCAAGCGCCATCTAC” belongs 0.91 RPM ratio (pull-down/input). To “GATGATTGTTCTCCCAGCTGATGAATTTGGAAGGTCGAGTAAACAAATTTTCCTAATCTTTCTGTTCAAGCGCCATCTAC” belongs 0.791 RPM ratio (pull-down/input). With “GATGATTGTTCTCCCAGCTGATGAATTTGACGCATCGAGTAAACAAATTTTCCTAATCTTTCTGTTCAAGCGCCATCTAC”, the binding signal was 1.1 RPM ratio (pull-down/input). For “GATGATTGTTCTCCCAGCTGATGAATTAGTATCATCGAGTAAACAAATTTTCCTAATCTTTCTGTTCAAGCGCCATCTAC”, the binding signal was 1.22 RPM ratio (pull-down/input). To “GATGATTGTTCTCCCAGCTGATGAATTCGGCTGGTCGAGTAAACAAATTTTCCTAATCTTTCTGTTCAAGCGCCATCTAC” belongs 0.77 RPM ratio (pull-down/input); to “GATGATTGTTCTCCCAGCTGATGAATTCCGGTCCTCGAGTAAACAAATTTTCCTAATCTTTCTGTTCAAGCGCCATCTAC”, 0.772 RPM ratio (pull-down/input); to “GATGATTGTTCTCCCAGCTGATGAATTTGCGCCCTCGAGTAAACAAATTTTCCTAATCTTTCTGTTCAAGCGCCATCTAC”, 0.91 RPM ratio (pull-down/input). “GATGATTGTTCTCCCAGCTGATGAATTACAGTCCTCGAGTAAACAAATTTTCCTAATCTTTCTGTTCAAGCGCCATCTAC”: the binding signal is 0.999 RPM ratio (pull-down/input). On to “GATGATTGTTCTCCCAGCTGATGAATTCCTCTTTTCGAGTAAACAAATTTTCCTAATCTTTCTGTTCAAGCGCCATCTAC”, for which the binding signal was 0.976 RPM ratio (pull-down/input). To “GATGATTGTTCTCCCAGCTGATGAATTTGGCTACTCGAGTAAACAAATTTTCCTAATCTTTCTGTTCAAGCGCCATCTAC” belongs 0.949 RPM ratio (pull-down/input). Turning to “GATGATTGTTCTCCCAGCTGATGAATTCAACCGATCGAGTAAACAAATTTTCCTAATCTTTCTGTTCAAGCGCCATCTAC”, the binding signal is 0.857 RPM ratio (pull-down/input). In the case of “GATGATTGTTCTCCCAGCTGATGAATTGGACGTATCGAGTAAACAAATTTTCCTAATCTTTCTGTTCAAGCGCCATCTAC”, the binding signal is 0.961 RPM ratio (pull-down/input). As for “GATGATTGTTCTCCCAGCTGATGAATTTCCGAAATCGAGTAAACAAATTTTCCTAATCTTTCTGTTCAAGCGCCATCTAC”, the binding signal was 0.949 RPM ratio (pull-down/input). To “GATGATTGTTCTCCCAGCTGATGAATTCCTACGGTCGAGTAAACAAATTTTCCTAATCTTTCTGTTCAAGCGCCATCTAC” belongs 0.765 RPM ratio (pull-down/input); to “GATGATTGTTCTCCCAGCTGATGAATTTGATGATTCGAGTAAACAAATTTTCCTAATCTTTCTGTTCAAGCGCCATCTAC”, 0.978 RPM ratio (pull-down/input); to “GATGATTGTTCTCCCAGCTGATGAATTTGGTAACTCGAGTAAACAAATTTTCCTAATCTTTCTGTTCAAGCGCCATCTAC”, 0.906 RPM ratio (pull-down/input). To “GATGATTGTTCTCCCAGCTGATGAATTCCTAAGCTCGAGTAAACAAATTTTCCTAATCTTTCTGTTCAAGCGCCATCTAC” belongs 0.799 RPM ratio (pull-down/input); to “GATGATTGTTCTCCCAGCTGATGAATTTAGAATTTCGAGTAAACAAATTTTCCTAATCTTTCTGTTCAAGCGCCATCTAC”, 0.998 RPM ratio (pull-down/input).

Regarding “GATGATTGTTCTCCCAGCTGATGAATTAGGTCCATCGAGTAAACAAATTTTCCTAATCTTTCTGTTCAAGCGCCATCTAC”, the binding signal was 0.933 RPM ratio (pull-down/input). For “GATGATTGTTCTCCCAGCTGATGAATTAACTGGCTCGAGTAAACAAATTTTCCTAATCTTTCTGTTCAAGCGCCATCTAC”, the binding signal was 0.808 RPM ratio (pull-down/input). To “GATGATTGTTCTCCCAGCTGATGAATTCTCACAGTCGAGTAAACAAATTTTCCTAATCTTTCTGTTCAAGCGCCATCTAC” belongs 0.875 RPM ratio (pull-down/input).

These data come from PMC12820563, “FoxP3 forms a head-to-head dimer in vivo and stabilizes its multimerization on adjacent microsatellites”.
